Experimental data from the supplement of paper PMC12632987.
Over roughly 4,500 sequences, “median log2 fold change of GCK-ALFA target abundance (FLAG IP / Myc IP barcode read proportion)” has its median near 0.078; the lowest 2% begin near -0.6. This is one part of the list.

B1: GBRAP_128_3323 (protein)
chain: MDEARLARAEALARAMVEASVEEARALTREFVALLATLTPEERERAAEIAERAFEELSAEKLEAVADTLRAERPTLDPETANVVAGLEVHALNLAEEKEE
B2: GBRAP_160_4711 (protein)
chain: MEVKEKLKKYVEEEFEEAKELIKGESIEQRAIIVEGTIGEIIMELFEEEEASDELIDEVDKIGDELVETILANPDLTEEEIEELIEKAEEEIKKAIDKYV
B3: GBRAP_26_5445 (protein)
chain: IEELFDELLEELEELIDELLPPELAGPAKAEVATLLEELEEFVEENPNNFELIEKKFKEAIEELEEELRRLGVPEEKIKKIVEKARKLFEELFEKIKKEK
B4: GBRAP_11_2876 (protein)
chain: KKEKLEEGLKLAEELAKKLEELKKKGVDDEKLRKEIKKLVEELKKLVKEYGDEALKKDAEILAELVEEAEKDKENAEKYVNEALAQARVLAGQYLLELEE
B5: GBRAP_9_7114 (protein)
chain: KEVDKEVLKKAVEEAEKDLKEFAEDIENEKVKEIVEEAIKKMKALTEIEGITLEELEKKLDEIVEEATERAKKEVSPEIAAALEAELLTEKEEIIEAVEE
B6: GBRAP_11_2776 (protein)
chain: KKEKLEEAVKLARELAEAIKKLLEEGLDNEELRKKAEELLEKLEKLIKENADESLKKLAEIAKEEWEEAKKDPENAEEHAKHMLAAVEVLEGQLLLELEE
B7: GBRAP_52_5926 (protein)
chain: AAAALRARAQAILDAALAGDREGMEALIREIAKTLSLEEIEGVIAELARLVAELGPEHYDVFAEIMDLLEDAIEEEGRDVEAIQAAIARGAGILYDAEQA
B8: GBRAP_78_6674 (protein)
chain: EVEEELDKAIEHLGKAASILIKMNTEEAQEILGKVVDAASTLVEIEEGEADLKDAEEALKKLEEALKEVEKINTEEAKKAAEHLKAAIEHLKAAIKKMKE
B9: GBRAP_184_5134 (protein)
chain: ALRRAAVEATDAEELIAAARAVVDEAAAAGERLLLAVFAENMSVEEVIRVIRALGALKAAHPQVTVVVVVEDEVSEEELDRLVAAADEAGVRLVAALSDE
B10: GBRAP_150_3930 (protein)
chain: DLETLEDIVDTAIDLIEAIADGEESLVPHALKLAEHALEEAEELPEEVREKVKELLEKVIEKLKKIAAGAPEEERKKLVKEAKKLLEEALKLVEKLKKEK
B11: GBRAP_166_4949 (protein)
chain: SLEALKAELEAFIEELTAKMKTADAEERLDLLAEIAERLAEAKEAGLSDEDLLALATLALKLTKEAGGDVRQLLGVIEMFVDLTEEQRDRLAAAADEVEA
B12: GBRAP_184_5060 (protein)
chain: KVLEETIKVNNVEEAKKKIEELKEKVKDFKGDLVVSLEIKEFDKEIVKEVLEGLGEIKEKGYVKSVTLGIDAEMTEEEVDFAIELADEKGVKVVVPLSEE
B13: GBRAP_160_4056 (protein)
chain: SKEKEELIEEVKRAREEILEVIDEEGAEAAKIMAAGLFGSIIMEAAELPNASDELVDALAEIRDKLVEELEKNKDASKEELKEIVKKAAEEAIKAIEKYY
B14: GBRAP_150_3929 (protein)
chain: DLETLEDILDTAIDIIEAIAEGQEDLVPHALKLVEAAKDEAKELPEEVREKVEELLEEVIELLKAILAGAPEEERKKYIKEALEKLKEAKELVEKLKEEK
B15: GBRAP_9_7155 (protein)
chain: MEELLEKVKEVIEEAFEEIKKVVPEEVKPIVDELKEEAEKEFEKLAKDKNITKEEIVEKAKEILKKLEEELSKKVSPEIKKMVEAIVLTAELEIEELAEE
B16: GBRAP_166_4915 (protein)
chain: SMEELLEEAKRRIEELVKKIPKTDREKQVELAIEIAEVLEELEKAGASEEELDELWRHLAEALKEAGLDVERLMAVVAAAAGLDEEEMERVDEIVEEVLA
B17: GBRAP_55_6435 (protein)
chain: SEDEELDREASEDLVEVAAALIDDPEAMRRVIERLARDMAGKPIYVTKEALDLLETEEERRRFLLELVRAAKANPKITGIELVDVSEEDRALLAEAEAEA
B18: GBRAP_125_3009 (protein)
chain: HMEEIAEALGLIARRLGLSEEDVAELRELALRHGIKGTFYALFLAEGQEELADLVEKLTEEEVEEVVLEVAAELERNPDLTPEEVVALIREVLEKALAKR
B19: GBRAP_78_6644 (protein)
chain: EVEELVDKALEHIDKASKLALKLPEEERNELLDELVDASSYLLESEEEGFDLELLKKALEELEAALELVKKIDHPYAPEIKKELEKAIKLLKEAIKLLEK

These binders were tested against GABARAP, O95166 (assay: median log2 fold change of GCK-ALFA target abundance (FLAG IP / Myc IP barcode read proportion) (log2 ratio); each designed protein is fused to an ALFA-tag nanobody in HEK293 cells to bring the named protein to FLAG-tagged glucokinase (GCK); Myc marks an untargeted standard; higher = target protein stabilised (more abundant)). Conditions: target protein: 3xFLAG-MCP-GCK-ALFA reporter; HEK293 landing pad (RPLP).
GABARAP, O95166, sequence (O95166 whole entry, the tested form may be a part): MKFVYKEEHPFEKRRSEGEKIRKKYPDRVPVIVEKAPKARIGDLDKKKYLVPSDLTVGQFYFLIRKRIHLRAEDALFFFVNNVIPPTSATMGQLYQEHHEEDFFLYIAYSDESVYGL
How it was run: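 HEK293 landing-pad cells received a recombined binder library fused to the ALFA nanobody and were induced with 2 μg mL^−1 doxycycline, then transfected with a plasmid encoding a FLAG-tagged target and a Myc-tagged standard. Lysates were collected after 48 h for anti-FLAG and anti-Myc immunoprecipitation, and the circular RNA barcodes were reverse transcribed, amplified and sequenced. Target abundance for each binder is the median log2 ratio of FLAG to Myc barcode read proportions. Barcodes had to reach a proportion of at least 10^−7 in both replicates, each binder needed at least 3 barcodes per replicate, a pseudocount of 10^−6 was applied, and the two replicates were pooled.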
In the case of B1, the “median log2 fold change” value is reported as 0.267. With B2 the “median log2 fold change” value was -0.152. In the case of B3, the “median log2 fold change” value is reported as 0.0323. B4 was tested, and the “median log2 fold change” value was 0.439. B5 was tested, and the “median log2 fold change” value was 0.359. B6 was tested, and the “median log2 fold change” value was 0.228. B7 was tested, and the “median log2 fold change” value was 0.0988. In the case of B8, the “median log2 fold change” value is reported as 0.166. In the case of B9, the “median log2 fold change” value is reported as 0.0256. In the case of B10, the “median log2 fold change” value is reported as 0.176. In the case of B11, the “median log2 fold change” value is reported as 0.0529. In the case of B12, the “median log2 fold change” value is reported as 0.00873. For B13, the “median log2 fold change” value was 0.187. For B14, the “median log2 fold change” value was 0.292. B15 was tested, and the “median log2 fold change” value was 0.304. In the case of B16, the “median log2 fold change” value is reported as 0.0994. With B17 the “median log2 fold change” value was 0.0201. With B18 the “median log2 fold change” value was -0.146. In the case of B19, the “median log2 fold change” value is reported as -0.126.
